± gives the standard deviation of the averaged measurements. Some of the results follow.
Test system: PfAP2-EXP AP2 domain (GST-tagged)
Assay: gcPBM binding intensity (ln(normalized median fluorescence intensity)); higher = stronger DNA binding
Summary of the method: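 Binding intensity is the highest Masliner-normalised natural-log median intensity over replicate spots in either probe orientation. To obtain it, GST-tagged P. falciparum DNA-binding domains made in E. coli were incubated for 1 h on an Agilent 4 × 180k array of primer-extended double-stranded 36-bp intergenic genomic probes plus negative controls. Detection used Alexa488 anti-GST antibody with scanning at 488 nm.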

Sequence	gcPBM binding intensity (ln)
TTTTTTATTATTATGTGTACGAATATGTGCATATAA [XGTACX_site1364]	8.52 ± 0.14
TAAAAAAAAAAAATGTGTACATATTATATATATCTT [XGTACX_site2615]	8.22 ± 0.3
ATGAGTATACTAAGAACACACAAGTTACTTGGTGTT [CACACA_site4981]	8.64 ± 0.4
GTTACACAAACAAACACACACACACGCACGCACAAA [CACACA_site7191]	8.73 ± 0.28
TTTTTTCTCTATATATGTACATATAAAAAATATATC [XGTACX_site6382]	8.68 ± 0.26
CATATTATTTAAACATGTACTCACATATAAATATAA [XGTACX_site6096]	8.39 ± 0.27
ATTTTATAATTTATATCACACACATATATATATAGT [CACACA_site7885]	8.57 ± 0.33
TGTTTATAAATATAAAAAAATATATATATATATTAT [GTGCAC_negctrl_site247]	8.18 ± 0.3
ACCATAACATGAATTACAGGAATTGAAAATGTTCCA [CACACA_negctrl_site649]	8.25 ± 0.41
TATATATATATATTCACACATAAGATGAATAAAGTG [CACACA_site4225]	9.91 ± 0.27
CAAAATTAATAAGTCACACACACATCTATAATATAT [CACACA_site6519]	8.56 ± 0.6
TTCTTTATTTTTTCTACACACATTAGATATTCAAAG [CACACA_site7624]	8.71 ± 0.32
GTATTATATATAAAAGTGCATATTTTTTTCCCTTAC	8.82 ± 0.18
GGTTACATTTTATTTTGTACATAAAAATTTTTATTT [XGTACX_site218]	8.82 ± 0.34
ATAAAATTTTATATGGGTACATAATATAATATATAT [XGTACX_site8160]	8.84 ± 0.41
ATATATATATATATATGTACACATATATTTCTTTTC [XGTACX_site3443]	10 ± 0.47
TTTAAAAATTAATTCTGTACACATTTTTATTATATT [XGTACX_site4212]	8.54 ± 0.39
AAATGATATAAATTATAAAATGGATTTTTTCCATTG [CACACA_negctrl_site420]	7.86 ± 0.29
ATTCCTGGACCGTTCATGCACTTGCAGAACGTCCAT	8.47 ± 0.25
TTTATGAAATGTTGCACACAAAAAACAACATGTTTT [CACACA_site1440]	8.44 ± 0.33

Sequence	gcPBM binding intensity (ln)
AAAAAAAAAAAAAGTGCACACGATTTAAGGCCTATA [CACACA_site2823]	8.83 ± 0.13
CTCTATATATTATTATGTACTAAATGTATGTATGTA [XGTACX_site7151]	8.48 ± 0.28
TTCTTCTGTTTTATTACACACCATTTTGTGTCTACA [CACACA_site8643]	9.29 ± 0.5
ATGAATGAATAAAGAAGTACGGAAATATTAACAAAA [XGTACX_site4695]	8.87 ± 0.46
AAAACACAATTTATTACACACATATATTATATATTA [CACACA_site1420]	8.21 ± 0.4
TAACACACTAAGAAAAGTACTGATTAATATAATTTT [XGTACX_site5536]	8.2 ± 0.36
ATAACATACATAACAACACACAATATTTATCTGTAT [CACACA_site4279]	8.71 ± 0.43
ATATATAATTCCCAAGTGCATTTATTTTAATTATTA	8.87 ± 0.26
TTCATTCAAATCCAAGCATGCTTTATTAAAAAATTA [TGCATGCA_site567]	8.54 ± 0.47
AATAAATTTCAAAATTGTACTCATTTCCTTTCCCAA [XGTACX_site5887]	8.43 ± 0.38
TACGCCTATAACGGCTGTACACCTTACTTTTTTTAA [XGTACX_site6818]	8.54 ± 0.36
TATGATTTTTATATATGTACGTATGGTGTTTTACAA [XGTACX_site6100]	8.8 ± 0.42
TGTGAAATAAAATTTGTACACACATATATATATATA [CACACA_site8093]	10.1 ± 0.34
GAACTAATAATGAAAAGTACACATACACATATATAT [XGTACX_site6789]	8.73 ± 0.24
AAATGTATACACATGGTGCGTAATATATTATATATA [GTGCAC_site9877]	8.99 ± 0.17
CTACCAAATCTATAGACACACATATATATATATATT [CACACA_site2486]	8.56 ± 0.33
TTTATATAATAGTTATGTACTTAAACGAAAGATACA [XGTACX_site8495]	8.52 ± 0.34
AAATACAAGGGACATGCATACCACTATTTTTTAAAT [TGCATGCA_site588]	8.51 ± 0.28
AAAGATATTTTTATCTCACACATATAATATATATAT [CACACA_site5478]	9.07 ± 0.12
GTTACTGCATACATAACACACATATTCAAAACACAT [CACACA_site3502]	8.85 ± 0.76

Sequence	gcPBM binding intensity (ln)
TATTTACAGACATGCGCACACATAAATAAATAATAG [CACACA_site2411]	8.96 ± 0.3
GCATATGTATATAATGTGCACATGGATTATATAAAA	8.96 ± 0.11
TATAGAAAATTTATATGTACATATATATATATATAT [XGTACX_site4451]	10.1 ± 0.44
TAAAATTTAAGTTATACACACTTAAGTAACATCATC [CACACA_site6395]	8.72 ± 0.37
CACTTTAATTTATGCACACATATGGAACAACAGCCA [CACACA_site994]	9.17 ± 0.14
TAAGTTTGTCAATCAACACACACCTATTTATTATAT [CACACA_site3919]	8.38 ± 0.39
TTTTTTGACATTCCTTTTAATAATTAACGAAAGGCA [GTGCAC_negctrl_site377]	8.2 ± 0.33
CTTAAAATGATAATATGTACACATAAATAATATATA [XGTACX_site8330]	8.56 ± 0.3
TATATAATATTACGTTGTACACTTTAATCTCCCTTC [XGTACX_site5577]	8.89 ± 0.51
ACTAATATGCAATATTGTACATATATATAGAAATAT [XGTACX_site5273]	8.66 ± 0.36
ACCATTTGAAAATTCACACACTTTATTTTGTTATAT [CACACA_site5976]	8.85 ± 0.33
AATATATCGCATAGTTGTACAGAATTTTTACTTTTA [XGTACX_site8192]	8.73 ± 0.51
ATTGAAAAATAAAAATGTACACATGTAGCATACCAT [XGTACX_site3275]	8.69 ± 0.41
TATAATCAATGCCAAAGTACATATTAATATATTTAT [XGTACX_site4558]	8.4 ± 0.34
ACTTGACACGGACACACACACATATATAAAAAAAAA [CACACA_site4576]	8.62 ± 0.42
TTTTTTTATTATCATGCACACATTTTTTTTTTTTAC [CACACA_site2253]	8.72 ± 0.39
ATAATAAAAATAAGAGAATAAAAATGCAATTTAATG [CACACA_negctrl_site878]	8.65 ± 0.35
TCCTTTATTTTTAAATGTACAAATATTATCTCCTCA [XGTACX_site5856]	8.53 ± 0.35

Source: the supplement of paper PMC11417369
